The list shows a part of the results.
How the values were obtained:
HSkMC = human skeletal muscle cells; assay: cytotoxicity call (relative viability < 0.9); conditions: 10 µM
HepG2 = assay: cytotoxicity call (relative viability < 0.9); conditions: 10 µM
S. aureus RN4220 = assay: growth inhibition call (relative growth <= 0.2); conditions: 50 µM

C[C@H]1CN([C@@H](C)CO)S(=O)(=O)c2ccc(-c3ccccc3F)cc2O[C@@H]1CN(C)Cc1cncnc1
inactive: cytotoxicity call (HSkMC) | cytotoxicity call (HepG2) | growth inhibition call (S. aureus RN4220)

C[C@H]1CN([C@@H](C)CO)C(=O)c2cccc(NC(=O)c3ccc(-c4nccs4)cc3)c2O[C@@H]1CN(C)Cc1ccccc1
inactive: cytotoxicity call (HSkMC) | cytotoxicity call (HepG2) | growth inhibition call (S. aureus RN4220)

O=C(Cc1ccncc1)NCC[C@@H]1CC[C@H](NC(=O)C2CCOCC2)[C@H](CO)O1
inactive: cytotoxicity call (HSkMC) | cytotoxicity call (HepG2) | growth inhibition call (S. aureus RN4220)

C[C@@H]1CCCCO[C@H](CN(C)C(=O)c2ccncc2)[C@@H](C)CN([C@H](C)CO)C(=O)c2cc(NS(=O)(=O)c3ccc(Cl)cc3)ccc2O1
inactive: cytotoxicity call (HSkMC) | cytotoxicity call (HepG2) | growth inhibition call (S. aureus RN4220)

Cc1noc(C)c1NC(=O)Nc1ccc2c(c1)C(=O)N([C@H](C)CO)C[C@@H](C)[C@@H](CN(C)C(=O)NC1CCCCC1)OCCCC[C@@H](C)O2
inactive: cytotoxicity call (HSkMC) | cytotoxicity call (HepG2) | growth inhibition call (S. aureus RN4220)

C[C@@H]1CN([C@H](C)CO)C(=O)Cc2cc(NS(=O)(=O)c3cn(C)cn3)ccc2O[C@H]1CN(C)Cc1ccccc1
inactive: cytotoxicity call (HSkMC) | cytotoxicity call (HepG2) | growth inhibition call (S. aureus RN4220)

Cc1ccc(S(=O)(=O)N(C)C[C@H]2OCCCC[C@H](C)Oc3ccc(NC(=O)NC4CCCCC4)cc3C(=O)N([C@H](C)CO)C[C@@H]2C)cc1
inactive: cytotoxicity call (HSkMC) | cytotoxicity call (HepG2) | growth inhibition call (S. aureus RN4220)

C[C@H]1CN([C@@H](C)CO)C(=O)c2cc(NC(=O)C3CC3)ccc2O[C@@H]1CN(C)S(=O)(=O)c1cccs1
inactive: cytotoxicity call (HSkMC) | cytotoxicity call (HepG2) | growth inhibition call (S. aureus RN4220)

O=C(Nc1ccc2c(c1)[C@@H]1C[C@H](CC(=O)N3CCc4ccccc4C3)O[C@@H](CO)[C@@H]1O2)C1CCOCC1
inactive: cytotoxicity call (HSkMC) | cytotoxicity call (HepG2) | growth inhibition call (S. aureus RN4220)

N[C@H](c1ccc(Cl)cc1)c1cccnc1
inactive: cytotoxicity call (HSkMC) | cytotoxicity call (HepG2) | growth inhibition call (S. aureus RN4220)

Cc1ccc(S(=O)(=O)Nc2ccc3c(c2)C(=O)N([C@H](C)CO)C[C@H](C)[C@H](CN(C)C(=O)Nc2ccccc2)OCCCC[C@@H](C)O3)cc1
inactive: cytotoxicity call (HSkMC) | cytotoxicity call (HepG2) | growth inhibition call (S. aureus RN4220)

— the antibiotic and cytotoxicity screens of Wong et al. (2023)
